# Source: the supplement of paper PMC8728848
# Some of the results follow.
# B1: SalT (Orysata sativa) (protein)
# chain: MTLVKIGLWGGNGGSAQDISVPPKKLLGVTIYSSDAIRSIAFNYIGVDGQEYAIGPWGGGEGTSTEIKLGSSEHIKEISGTHGPVYDLADIVTYLKIVTSANNTYEAGVPNGKEFSIPLQDSGHVVGFFGRSGTLIDAIGIYVHPILEQKLISEEDLNSAVDHHHHHH
# Assays:
# Experiment in all cases: glycan array binding signal (z-score within array); higher = stronger binding
# Settings in all cases: glycan notation: IUPAC condensed, linker removed
# [1] = target: Gal(b1-4)GlcNAc(b1-3)[GlcNAc(b1-6)]Gal(b1-4)GlcNAc
# Method in brief: (§1)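 Arrays were curated from the Consortium for Functional Glycomics database, 3228 in total, and kept only where the protein sequence was available. Binding is expressed as a within-array Z-score. This score was averaged across arrays of the same protein sequence at different concentrations or buffers and across linkers, and negative values can be read as non-binding.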
# [2] = target: Gal(b1-4)GlcNAc(b1-6)Gal(b1-4)GlcNAc
# Method in brief: as §1
# [3] = target: Gal(b1-4)GlcNAc(b1-6)GalNAc
# Method in brief: as §1
# [4] = target: Gal(b1-4)GlcNAc(b1-6)[Gal(b1-3)]GalNAc
# Method in brief: as §1
# Gal(b1-4)GlcNAc6P = target: Gal(b1-4)GlcNAc6P
# Method in brief: as §1
# Gal(b1-6)Gal = target: Gal(b1-6)Gal
# Method in brief: as §1
# Gal3S(b1-3)GalNAc = target: Gal3S(b1-3)GalNAc
# Method in brief: as §1
# Gal3S(b1-3)GlcNAc = target: Gal3S(b1-3)GlcNAc
# Method in brief: as §1
# [5] = target: Gal3S(b1-3)[Fuc(a1-4)]GlcNAc
# Method in brief: as §1
# Gal3S(b1-4)Glc = target: Gal3S(b1-4)Glc
# Method in brief: as §1
# Gal3S(b1-4)Glc6S = target: Gal3S(b1-4)Glc6S
# Method in brief: as §1
# Gal3S(b1-4)GlcNAc = target: Gal3S(b1-4)GlcNAc
# Method in brief: as §1
# Gal3S(b1-4)GlcNAc6S = target: Gal3S(b1-4)GlcNAc6S
# Method in brief: as §1
# [6] = target: Gal3S(b1-4)[Fuc(a1-3)]Glc
# Method in brief: as §1
# [7] = target: Gal3S(b1-4)[Fuc(a1-3)]Glc6S
# Method in brief: as §1
# Gal3S4S(b1-4)GlcNAc = target: Gal3S4S(b1-4)GlcNAc
# Method in brief: as §1
# Gal3S6S(b1-4)GlcNAc = target: Gal3S6S(b1-4)GlcNAc
# Method in brief: as §1
# Gal3S6S(b1-4)GlcNAc6S = target: Gal3S6S(b1-4)GlcNAc6S
# Method in brief: as §1
# Gal4S(b1-4)GlcNAc = target: Gal4S(b1-4)GlcNAc
# Method in brief: as §1
# Gal4S6S(b1-4)GlcNAc = target: Gal4S6S(b1-4)GlcNAc
# Method in brief: as §1
# Gal6P(b1-4)GlcNAc = target: Gal6P(b1-4)GlcNAc
# Method in brief: as §1
# Gal6S(b1-3)GlcNAc = target: Gal6S(b1-3)GlcNAc
# Method in brief: as §1
# Gal6S(b1-3)GlcNAc6S = target: Gal6S(b1-3)GlcNAc6S
# Method in brief: as §1
# Gal6S(b1-4)Glc = target: Gal6S(b1-4)Glc
# Method in brief: as §1
# Gal6S(b1-4)Glc6S = target: Gal6S(b1-4)Glc6S
# Method in brief: as §1
# Gal6S(b1-4)GlcNAc = target: Gal6S(b1-4)GlcNAc
# Method in brief: as §1
# Gal6S(b1-4)GlcNAc6S = target: Gal6S(b1-4)GlcNAc6S
# Method in brief: as §1
# GalNAc(a1-3)Gal = target: GalNAc(a1-3)Gal
# Method in brief: as §1
# GalNAc(a1-3)GalNAc = target: GalNAc(a1-3)GalNAc
# Method in brief: as §1
# [8] = target: GalNAc(a1-3)GalNAc(b1-3)Gal(a1-4)Gal(b1-4)Glc
# Method in brief: as §1
# [9] = target: GalNAc(a1-3)GalNAc(b1-3)Gal(a1-4)Gal(b1-4)GlcNAc
# Method in brief: as §1
# GalNAc(b1-3)Gal = target: GalNAc(b1-3)Gal
# Method in brief: as §1
# [10] = target: GalNAc(b1-3)Gal(a1-4)Gal(b1-4)GlcNAc
# Method in brief: as §1
# [11] = target: GalNAc(b1-3)Gal(a1-4)Gal(b1-4)GlcNAc(b1-3)Gal(b1-4)Glc
# Method in brief: as §1
# [12] = target: GalNAc(b1-3)Gal(a1-6)Gal(b1-4)Glc
# Method in brief: as §1
# GalNAc(b1-3)GalNAc = target: GalNAc(b1-3)GalNAc
# Method in brief: as §1
# GalNAc(b1-4)Gal(b1-4)Glc = target: GalNAc(b1-4)Gal(b1-4)Glc
# Method in brief: as §1
# GalNAc(b1-4)GlcNAc = target: GalNAc(b1-4)GlcNAc
# Method in brief: as §1
# [13] = target: GalNAc(b1-4)GlcNAc(b1-2)Man(a1-3)[GalNAc(b1-4)GlcNAc(b1-2)Man(a1-6)]Man(b1-4)GlcNAc(b1-4)GlcNAc
# Method in brief: as §1
# GalNAc(b1-4)GlcNAc6S = target: GalNAc(b1-4)GlcNAc6S
# Method in brief: as §1
# GalNAc(b1-6)GalNAc = target: GalNAc(b1-6)GalNAc
# Method in brief: as §1
# GalNAc3S(b1-4)GlcNAc = target: GalNAc3S(b1-4)GlcNAc
# Method in brief: as §1
# GalNAc3S(b1-4)GlcNAc3S = target: GalNAc3S(b1-4)GlcNAc3S
# Method in brief: as §1
# GalNAc4S6S(b1-4)GlcNAc = target: GalNAc4S6S(b1-4)GlcNAc
# Method in brief: as §1
# GalNAc6S(b1-4)GlcNAc = target: GalNAc6S(b1-4)GlcNAc
# Method in brief: as §1
binder,measurement,setting,value
B1,glycan array binding signal (z-score),[1],-0.307
same,glycan array binding signal (z-score),[2],-0.31
same,glycan array binding signal (z-score),[3],-0.307
same,glycan array binding signal (z-score),[4],-0.308
same,glycan array binding signal (z-score),Gal(b1-4)GlcNAc6P,-0.308
same,glycan array binding signal (z-score),Gal(b1-6)Gal,-0.308
same,glycan array binding signal (z-score),Gal3S(b1-3)GalNAc,-0.308
same,glycan array binding signal (z-score),Gal3S(b1-3)GlcNAc,-0.308
same,glycan array binding signal (z-score),[5],-0.309
same,glycan array binding signal (z-score),Gal3S(b1-4)Glc,-0.309
same,glycan array binding signal (z-score),Gal3S(b1-4)Glc6S,-0.309
same,glycan array binding signal (z-score),Gal3S(b1-4)GlcNAc,-0.309
same,glycan array binding signal (z-score),Gal3S(b1-4)GlcNAc6S,-0.308
same,glycan array binding signal (z-score),[6],-0.305
same,glycan array binding signal (z-score),[7],-0.3
same,glycan array binding signal (z-score),Gal3S4S(b1-4)GlcNAc,-0.31
same,glycan array binding signal (z-score),Gal3S6S(b1-4)GlcNAc,-0.309
same,glycan array binding signal (z-score),Gal3S6S(b1-4)GlcNAc6S,-0.308
same,glycan array binding signal (z-score),Gal4S(b1-4)GlcNAc,-0.312
same,glycan array binding signal (z-score),Gal4S6S(b1-4)GlcNAc,-0.308
same,glycan array binding signal (z-score),Gal6P(b1-4)GlcNAc,-0.31
same,glycan array binding signal (z-score),Gal6S(b1-3)GlcNAc,-0.308
same,glycan array binding signal (z-score),Gal6S(b1-3)GlcNAc6S,-0.31
same,glycan array binding signal (z-score),Gal6S(b1-4)Glc,-0.308
same,glycan array binding signal (z-score),Gal6S(b1-4)Glc6S,-0.306
same,glycan array binding signal (z-score),Gal6S(b1-4)GlcNAc,-0.303
same,glycan array binding signal (z-score),Gal6S(b1-4)GlcNAc6S,-0.307
same,glycan array binding signal (z-score),GalNAc(a1-3)Gal,-0.3
same,glycan array binding signal (z-score),GalNAc(a1-3)GalNAc,-0.309
same,glycan array binding signal (z-score),[8],-0.308
same,glycan array binding signal (z-score),[9],-0.307
same,glycan array binding signal (z-score),GalNAc(b1-3)Gal,-0.305
same,glycan array binding signal (z-score),[10],-0.306
same,glycan array binding signal (z-score),[11],-0.307
same,glycan array binding signal (z-score),[12],-0.309
same,glycan array binding signal (z-score),GalNAc(b1-3)GalNAc,-0.309
same,glycan array binding signal (z-score),GalNAc(b1-4)Gal(b1-4)Glc,-0.305
same,glycan array binding signal (z-score),GalNAc(b1-4)GlcNAc,-0.305
same,glycan array binding signal (z-score),[13],-0.141
same,glycan array binding signal (z-score),GalNAc(b1-4)GlcNAc6S,-0.307
same,glycan array binding signal (z-score),GalNAc(b1-6)GalNAc,-0.308
same,glycan array binding signal (z-score),GalNAc3S(b1-4)GlcNAc,-0.306
same,glycan array binding signal (z-score),GalNAc3S(b1-4)GlcNAc3S,-0.308
same,glycan array binding signal (z-score),GalNAc4S6S(b1-4)GlcNAc,-0.307
same,glycan array binding signal (z-score),GalNAc6S(b1-4)GlcNAc,-0.308
